From a collection of fitness landscapes (doi:10.1126/science.1257360)
The other results are listed elsewhere or left out.

B1: PhoQ; a variant is named by its letters at X, in order, P23837 (parent)
chain: MKKLLRLFFPLSLRVRFLLATAAVVLVLSLAYGMVALIGYSVSFDKTTFRLLRGESNLFYTLAKWENNKLHVELPENIDKQSPTMTLIYDENGQLLWAQRDVPWLMKMIQPDWLKSNGFHEIEADVNDTSLLLSGDHSIQQQLQEVREDDDDAEMTHSVAVNVYPATSRMPKLTIVVVDTIPVELKSSYMVWSWFIYVLSANLLLVIPLLWVAAWWSLRPIEALAKEVRELEEHNRELLNPATTRELTSLVRNLNRLLKSERERYDKYRTTLTDLTHSLKTPLXXLQXXLRSLRSEKMSVSDAEPVMLEQISRISQQIGYYLHRASMRGGTLLSRELHPVAPLLDNLTSALNKVYQRKGVNISLDISPEISFVGEQNDFVEVMGNVLDNACKYCLEFVEISARQTDEHLYIVVEDDGPGIPLSKREVIFDRGQRVDTLRPGQGVGLAVAREITEQYEGKIVAGESMLGGARMEVIFGRQHSAPKDE

Variants of: B1
Experiment: enrichment ratio after two sorts for PhoP signalling (ratio (wild type AVST 3.29)); higher = more functional
Conditions: with PhoP (E. coli)

| Variant | enrichment ratio |
| --- | --- |
| RMTK | ≤ 0.25 |
| APII | ≤ 0.25 |
| CLLL | ≤ 0.25 |
| IRPQ | ≤ 0.25 |
| EGIR | ≤ 0.25 |
| AVCG | 16 |
| KIKI | ≤ 0.25 |
| NRTA | ≤ 0.25 |
| TYLK | ≤ 0.25 |
| TGQG | 15.7 |
| QWFH | ≤ 0.25 |
| DYDC | ≤ 0.25 |
| QGRV | ≤ 0.25 |
| NGHA | ≤ 0.25 |
| NAYL | ≤ 0.25 |
| MRVM | ≤ 0.25 |
| VAVQ | ≤ 0.25 |
| IITA | ≤ 0.25 |
| KHYK | ≤ 0.25 |
| GHSG | ≤ 0.25 |
| PLFF | ≤ 0.25 |
| EHVH | ≤ 0.25 |
| MPEL | ≤ 0.25 |
| YVCD | ≤ 0.25 |
| IGPH | ≤ 0.25 |

| Variant | enrichment ratio |
| --- | --- |
| FGPR | ≤ 0.25 |
| VDMI | ≤ 0.25 |
| FKAK | ≤ 0.25 |
| RPIM | ≤ 0.25 |
| HSLC | 0.563 |
| DRPD | ≤ 0.25 |
| SDMP | ≤ 0.25 |
| YFPC | ≤ 0.25 |
| HHQY | ≤ 0.25 |
| DICN | ≤ 0.25 |
| ITGF | ≤ 0.25 |
| PPRK | ≤ 0.25 |
| VENQ | ≤ 0.25 |
| AITG | 11.5 |
| WTDF | ≤ 0.25 |
| PIIL | ≤ 0.25 |
| FRSF | ≤ 0.25 |
| IPNW | ≤ 0.25 |
| TTRC | ≤ 0.25 |
| DCIG | ≤ 0.25 |
| IIWQ | ≤ 0.25 |
| RIQS | ≤ 0.25 |
| DAFV | ≤ 0.25 |
| GAGM | 0.739 |
| GHHE | ≤ 0.25 |

| Variant | enrichment ratio |
| --- | --- |
| AMYG | ≤ 0.25 |
| DSST | ≤ 0.25 |
| APNI | ≤ 0.25 |
| VEHA | ≤ 0.25 |
| TLVH | ≤ 0.25 |
| CMHL | 9.84 |
| AWWF | ≤ 0.25 |
| KITH | 3.09 |
| QLYA | ≤ 0.25 |
| MGVS | ≤ 0.25 |
| SENG | 1.31 |
| YDSK | ≤ 0.25 |
| DYWF | ≤ 0.25 |
| VGFL | 0.317 |
| FTYD | ≤ 0.25 |
| RNIA | ≤ 0.25 |
| PQMD | ≤ 0.25 |
| REFC | ≤ 0.25 |
| ALFS | ≤ 0.25 |
| TLVF | ≤ 0.25 |
| AQYY | ≤ 0.25 |
| WQVG | ≤ 0.25 |
| MCRK | ≤ 0.25 |
| PQLI | ≤ 0.25 |
| PGNY | ≤ 0.25 |

| Variant | enrichment ratio |
| --- | --- |
| DRCD | ≤ 0.25 |
| IIFA | ≤ 0.25 |
| DWPQ | ≤ 0.25 |
| AGVS | 1.15 |
| LIPL | ≤ 0.25 |
| VFIP | ≤ 0.25 |
| LEVK | ≤ 0.25 |
| GSLG | 6.29 |
| YQQL | ≤ 0.25 |
| KNAD | ≤ 0.25 |
| KSMY | ≤ 0.25 |
| GLNM | ≤ 0.25 |
| VWNS | ≤ 0.25 |
| MPCA | ≤ 0.25 |
| GPLT | ≤ 0.25 |
| AGQA | ≤ 0.25 |
| PDNW | ≤ 0.25 |
| YETA | ≤ 0.25 |
| WPIA | ≤ 0.25 |
| QHPT | ≤ 0.25 |
| HTMN | ≤ 0.25 |
| LDML | ≤ 0.25 |
| LKQA | ≤ 0.25 |
| PGVH | ≤ 0.25 |
| NPVV | ≤ 0.25 |

| Variant | enrichment ratio |
| --- | --- |
| HPPP | ≤ 0.25 |
| IRFY | ≤ 0.25 |
| EFQD | ≤ 0.25 |
| LAIA | ≤ 0.25 |
| NYDV | ≤ 0.25 |
| HDST | ≤ 0.25 |
| TWRT | ≤ 0.25 |
| RMGK | ≤ 0.25 |
| CCLF | ≤ 0.25 |
| DYCY | ≤ 0.25 |
| HQQK | ≤ 0.25 |
| HGFQ | ≤ 0.25 |
| SYEW | ≤ 0.25 |
| KAKD | ≤ 0.25 |
| PFEQ | ≤ 0.25 |
| IHMG | ≤ 0.25 |
| SFRI | ≤ 0.25 |
| SNSE | 16.4 |
| WLKR | ≤ 0.25 |
| VNQH | ≤ 0.25 |
| KLWI | ≤ 0.25 |
| YQKD | ≤ 0.25 |
| TADK | ≤ 0.25 |
| DICT | ≤ 0.25 |
| VVRY | ≤ 0.25 |

| Variant | enrichment ratio |
| --- | --- |
| MPRM | ≤ 0.25 |
| MFKG | ≤ 0.25 |
| VVFW | ≤ 0.25 |
| AVGL | 3.84 |
| TYRH | ≤ 0.25 |
| KEKV | ≤ 0.25 |
| QHMH | ≤ 0.25 |
| SEHN | ≤ 0.25 |
| RVLM | ≤ 0.25 |
| FNQM | ≤ 0.25 |
| LQDK | ≤ 0.25 |
| QCHW | ≤ 0.25 |
| KGMT | ≤ 0.25 |
| AFFS | ≤ 0.25 |
| YYCD | ≤ 0.25 |
| WPLV | ≤ 0.25 |
| TWSY | ≤ 0.25 |
| DKHG | ≤ 0.25 |
| KDSY | ≤ 0.25 |
| EFHC | ≤ 0.25 |
| HRAY | ≤ 0.25 |
| KPIV | ≤ 0.25 |
| VCTK | ≤ 0.25 |
| VMAC | ≤ 0.25 |
| RFQW | ≤ 0.25 |

| Variant | enrichment ratio |
| --- | --- |
| SEKN | ≤ 0.25 |
| ELWY | ≤ 0.25 |
| TLPP | ≤ 0.25 |
| DVRP | ≤ 0.25 |
| NHKD | ≤ 0.25 |
| TFHH | ≤ 0.25 |
| HSDK | ≤ 0.25 |
| NESL | ≤ 0.25 |
| GSLF | 11.4 |
| YHDC | ≤ 0.25 |
| EYWV | ≤ 0.25 |
| YSYI | ≤ 0.25 |
| AQML | 24.2 |
| NWVW | ≤ 0.25 |
| DSHA | ≤ 0.25 |
| KDIG | ≤ 0.25 |
| QVKP | ≤ 0.25 |
| SMGF | 10.1 |
| IVFQ | ≤ 0.25 |
| MREA | ≤ 0.25 |
| SGYN | ≤ 0.25 |
| QISE | ≤ 0.25 |
| NSIE | ≤ 0.25 |
| KQIH | ≤ 0.25 |
| EPCI | ≤ 0.25 |

| Variant | enrichment ratio |
| --- | --- |
| YHCW | ≤ 0.25 |
| MSWG | 5.88 |
| EYCY | ≤ 0.25 |
| MDMF | ≤ 0.25 |
| IPKM | ≤ 0.25 |
| TQPM | ≤ 0.25 |
| DCPC | ≤ 0.25 |
| MWST | ≤ 0.25 |
| VSYS | ≤ 0.25 |
| RHVE | ≤ 0.25 |
| YRCC | ≤ 0.25 |
| GCKS | ≤ 0.25 |
| QNDV | ≤ 0.25 |
| FWVS | ≤ 0.25 |
| TGCH | 10.6 |
| DNCW | ≤ 0.25 |
| DNEA | ≤ 0.25 |
| YRGQ | ≤ 0.25 |
| RRIE | ≤ 0.25 |
| PKTA | ≤ 0.25 |
